# About 200 (0.44%) of roughly 45,000 compounds were called active. Not shown: some 7% with an inconclusive outcome. Calls follow the shape of the dose curve; as a rule, active = well fitted activation curve with a large enough effect; inconclusive = small, poorly fitted or top-dose-only effect; inactive = no such curve, though single readings can be large or run the other way. Some of the results follow.
# Assay: qHTS of TDP-43 Inhibitors: NCGC Sytravon Library Screen; also: nearly all actives have a fitted effect of over 55% in size; as to growth rescue (activation): 0% is about no effect
# Conditions: yeast TDP-43 toxicity rescue, BacTiter-Glo growth, 24 h; series mostly up to 46.1 µM; growth rescue (activation): at the top concentration
# Procedure, shortened: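 TDP-43-expressing yeast, pregrown in raffinose, seeded at OD600 0.02 in galactose medium with compound for 24 hr at 30 deg C. Growth read by BacTiter-Glo luminescence, so rescue of toxicity appears as activation.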
# Potency is read from the fitted curve at half-maximal effect.
Compound,growth rescue (activation),Potency
Nc1nnc(-c2ccccc2F)s1,inactive: -10.1%,–
COc1cc(NC(=S)NC(=O)c2ccc(F)cc2)ccc1NC(=O)c1ccco1,inactive: 2.5%,–
COc1ccc(OCC(=O)NNC(=O)CCc2ccccc2)cc1,inactive: 5.88%,–
O=C(c1cccs1)N1C(=O)c2cccc3cccc1c23,inactive: 5.87%,–
COc1ccc(N2CCN(Cc3cc(OC)c(O)c([N+](=O)[O-])c3)CC2)cc1,inactive: 12.2%,–
CN(CC(=O)NCCc1ccccc1)Cc1ccco1,inactive: 9.5%,–
Cc1ccc(S(=O)(=O)NC(=O)Nc2cccc(S(=O)(=O)N(C)C)c2)cc1,inactive: 21.2%,–
O=C(NC(Cc1ccccc1)C(=O)O)/C(=C/c1ccccc1)NC(=O)c1ccco1 (centres undefined),inactive: 0.431%,–
CC(C)CNC(=O)C1(C)CCCN1C(=O)c1csnn1 (centres undefined),inactive: 5.82%,–
c1csc(-c2cn3ccc4ccccc4c3n2)c1,inactive: -15.4%,–
COc1ccc(NC(=O)Cn2ccc(C(F)(F)F)n2)cc1S(=O)(=O)N1CCOCC1,inactive: -0.285%,–
Cc1cc(C)nc(CC(N)=O)n1,inactive: 9.61%,–
CCc1cc[n+](CC(=O)Nc2ccc(Cl)cc2Cl)cc1,inactive: 6.75%,–
COc1ccc(-c2noc(-c3csc([C@@H]4O[C@H](CO)[C@H](O)[C@H](O)[C@H]4O)n3)n2)cc1OC,inactive: 5.92%,–
CCOC(=O)C1CCN(S(=O)(=O)c2ccc(OCC)cc2)CC1,inactive: -1.84%,–
CCOC(=O)/C=C1/SCC(=O)N1CC(=O)Nc1ccc2c(c1)CCC2,inactive: 12.2%,–
Cc1ccc(-n2c(CNc3ccc(F)cc3)nnc2SCC(=O)O)cc1,inactive: 12.9%,–
CC1CN(c2nnnn2-c2ccccc2)CC(C)O1 (centres undefined),inactive: 9.28%,–
CCN(C(=O)c1cccnc1SC)C12CC3CC(CC(C3)C1)C2,inactive: -27%,–
COc1cc(C2C(C(=O)/C=C/c3ccccc3)=C(O)C(=O)N2c2ccccn2)ccc1O (centres undefined),inactive: -1.19%,–
COc1ccc(S(=O)(=O)NC(C)C(=O)NCc2ccccn2)cc1OC (centres undefined),inactive: 16.1%,–
COC(=O)c1ccc(N2C(=O)CC(N3CCOCC3)C2=O)cc1 (centres undefined),–,active: 15.8 µM
Cc1cccc(C)c1NC(=O)C1(N(C(=O)c2ccccn2)c2ccc(O)cc2)CCCCC1,inactive: 9.9%,–
COCCCNC(=O)c1csc([C@@H]2C[C@H](O)[C@@H](CO)O2)n1,inactive: 9.8%,–
O=Cc1ccc(OC(=O)c2cc(Cl)nc3ccccc23)cc1,inactive: 7.47%,–
O=C(O)c1ccc2c(c1)C(=O)N(c1cccc(S(=O)(=O)Nc3cccc(C(F)(F)F)c3)c1)C2=O,inactive: 14.6%,–
COc1cccc(/C=C2\CCC(C3CCCC3)C2=O)c1OC (centres undefined),inactive: 15.9%,–

Compound,growth rescue (activation),Potency
O=C(O)c1ccc2c3c(cccc13)C(=O)N(OS(=O)(=O)c1ccccc1)C2=O,inactive: -9.38%,–
CC(C)(CNS(=O)(=O)c1cccs1)N1CCOCC1,inactive: 5.01%,–
Cc1ccccc1N(CC(=O)N1CCOCC1)S(C)(=O)=O,inactive: -21.2%,–
O=C(NN=C1CCCCCC1)c1ccc2c(c1)OCO2,inactive: 7.39%,–
Cc1ccc(C(=O)Oc2oc(-c3ccccc3)nc2C=Nc2ccc(N(C)C)cc2)cc1,inactive: 7.74%,–
O=C(Nc1ccc(C(=O)O)cc1)/C(=C\C=C\c1ccccc1)NC(=O)c1ccc(Br)cc1,inactive: 10.5%,–
CCOC(=O)c1c(NC(C)=O)c2c3c(sc2n1Cc1c(C)cc(C)cc1C)CCCC3,inactive: 4.9%,–
Cc1ccc(NC(=O)c2c3c(nc4ccccc24)CCC3)cc1S(=O)(=O)N(C)C,inactive: -5.9%,–
COc1cccc(C(NC(C)=O)c2nc(-c3cccc(O)c3)cs2)c1 (centres undefined),inactive: 27.1%,–
CCCC1(CCC)NC(=O)N(CC(=O)Nc2ccc3c(c2)OCCO3)C1=O,inactive: -3.37%,–
Cc1ccc(NC(=O)C(=O)NC(C)C2COc3ccccc3O2)cc1 (centres undefined),inactive: 25.7%,–
Cn1cc(CN2C[C@]3(C)C[C@H]2CC(C)(C)C3)c(-c2ccc3c(c2)OCCO3)n1,inactive: 13.4%,–
COc1ccc(C(=O)NC2CC2)cc1OC1CCN(Cc2ccc(F)cc2)CC1,inactive: 4.9%,–
O=C(/C=C/c1ccccc1)NC(=S)NNS(=O)(=O)c1ccccc1,inactive: 1.96%,–
COc1cc(C(N)=O)cc(Br)c1OC,inactive: 34.1%,–
O=C1/C(=C\c2cccs2)SC(=S)N1C1CCS(=O)(=O)C1 (centres undefined),inactive: 5.99%,–
CN(C)C(=S)Nc1ccc2c(c1)OCO2,inactive: 6.5%,–
O=C(/C=C/c1cc([N+](=O)[O-])ccc1OC(F)F)Nc1cccc(OC(F)F)c1,inactive: -24.5%,–
c1ccc(CSCCc2ccncc2)cc1,inactive: -33.9%,–
Cc1ccc(S(=O)(=O)NCCC(=O)Nc2cc(S(=O)(=O)N(C)C)ccc2C)cc1C,inactive: 1.28%,–
CCN(CC)C(=O)Cn1nnc(-c2ccc(S(C)(=O)=O)cc2)n1,inactive: -16%,–
Cc1ccc(NC(=O)N2CCCC2C(=O)Nc2nnc(C(C)C)s2)cc1 (centres undefined),inactive: 6.55%,–
CCOC(=O)C1CCN(C(=O)/C=C/c2cc(OC)c(OC)c(OC)c2)CC1,inactive: 20.1%,–
O=C1/C(=C/c2ccc(F)cc2)SC(=S)N1N1CCOCC1,inactive: 0.728%,–
O=C(CNCc1ccccc1)NCCCN1CCCC1=O,inactive: -8.74%,–
CC(C)C(NC(=O)c1ccc(Cl)cc1Cl)C(=O)N1CCN(S(=O)(=O)c2ccccc2)CC1 (centres undefined),inactive: 10.8%,–
O=[N+]([O-])c1ccc(C(O)CN2CCOCC2)cc1 (centres undefined),inactive: 17.5%,–

# Reference: PubChem BioAssay AID1347073 (National Center for Advancing Translational Sciences (NCATS), 2019)
